The supplement of paper PMC12462457
“And” between values parts separate entries of the source, which are not always exact repeats. Equal entries are not always repeated. ± gives the standard deviation of the averaged measurements. This is one part of the list.

Tested on: OVCAR8
Assay: cell count relative to DMSO vehicle (fold change); OVCAR8 is a high-grade serous ovarian cancer line and CX-5461 an RNA polymerase I inhibitor; higher = more surviving senescent cells (less killing)
Details: senescence inducer: CX-5461 3 µM 48 h, then 6 d recovery (CX senescent), exposure time 24 h

Row | Compound | cell count (compound dose 1 µM) | cell count (compound dose 5 µM)
1 | CS(=O)(=O)CCNCc1ccc(-c2ccc3ncnc(Nc4ccc(OCc5cccc(F)c5)c(Cl)c4)c3c2)o1 [Lapatinib] | 1.1 ± 0.095 | 1.2 ± 0.071
2 | CS(=O)(=O)CCNCc1ccc(-c2ccc3ncnc(Nc4ccc(OCc5cccc(F)c5)c(Cl)c4)c3c2)o1 | 0.753 ± 0.11 | 0.44 ± 0.21
3 | Cn1cc(CC(N)C(=O)O)c2ccccc21 (racemic) [(Rac)-Indoximod] | 1.18 ± 0.25 | 1.12 ± 0.18
4 | CCC[C@H](Nc1nc(-c2ccc(NC(=O)NCC)c(OC)c2)ncc1C)c1cccnc1 [Lexibulin] | 1.17 ± 0.016 | 1.12 ± 0.018
5 | COc1cc2ncc(-c3ccccc3)nc2cc1OC [Tyrphostin AG 1296] | 1.29 ± 0.16 | 1.22 ± 0.15
6 | O=c1cc(N2CCNCC2)oc2c(-c3ccccc3)cccc12 | 1.15 ± 0.25 | 0.961 ± 0.2
7 | Cn1cc(-n2cnc3c(NCc4nc5cc(Cl)c(Cl)cc5[nH]4)nc(N4CCOCC4)nc32)cn1 | 0.607 ± 0.024 | 0.634 ± 0.059
8 | COc1cc(Nc2ncc(F)c(Nc3ccc4c(n3)NC(=O)C(C)(C)O4)n2)cc(OC)c1OC [R406 (free base)] | 1.06 ± 0.075 | 0.911 ± 0.15
9 | COc1cc(Nc2ncc(F)c(Nc3ccc4c(n3)NC(=O)C(C)(C)O4)n2)cc(OC)c1OC | 0.728 ± 0.11 | 0.295 ± 0.0092
10 | Cc1ccc(NC(=O)c2ccc(CN3CC[C@H](N(C)C)C3)c(C(F)(F)F)c2)cc1Nc1nccc(-c2cncnc2)n1 [Bafetinib] | 1.01 ± 0.036 | 1.1 ± 0.1
11 | CCCCCCCCCCC[C@@H](C[C@@H]1OC(=O)[C@H]1CCCCCC)OC(=O)[C@H](CC(C)C)NC=O [Orlistat] | 0.969 ± 0.13 | 0.881 ± 0.026
12 | CC1(C)CCC(CN2CCN(c3ccc(C(=O)NS(=O)(=O)c4ccc(NCC5CCOCC5)c([N+](=O)[O-])c4)c(Oc4cnc5[nH]ccc5c4)c3)CC2)=C(c2ccc(Cl)cc2)C1 [Venetoclax] | 0.809 ± 0.061 | 0.752 ± 0.23
13 | CS(=O)(=O)c1cccc(CNc2nc(Nc3ccc4c(c3)CCC(=O)N4)ncc2C(F)(F)F)c1 | 1.34 ± 0.21 | 1.32 ± 0.28
14 | O=C1NC(=O)C(Cc2c[nH]c3c(Cl)cccc23)N1 (stereo not drawn) [Necroptosis-IN-1] | 1.15 ± 0.28 | 1.12 ± 0.17
15 | O=c1c2ccccc2oc2ccccc12 | 1.2 ± 0.076 | 1.02 ± 0.12
16 | CC(C)(C)C[C@@H]1N[C@@H](C(=O)N[C@H]2CC[C@H](O)CC2)[C@H](c2cccc(Cl)c2F)[C@]12C(=O)Nc1cc(Cl)ccc12 | 1.02 and 0.893 | 1.1 and 1.02
17 | CC1(C)CC[C@]2(C(=O)n3cnc(-c4ccccn4)c3)CC[C@]3(C)[C@H](C(=O)C=C4[C@@]5(C)C=C(C#N)C(=O)C(C)(C)[C@@H]5CC[C@]43C)[C@@H]2C1 | 0.794 ± 0.083 | 0.01 ± 0.0014
18 | CC(C)=CC(=O)O[C@H]1Cc2cc3ccc(=O)oc3cc2OC1(C)C [Decursin] | 1.16 ± 0.16 | 1.06 ± 0.047
19 | CCNC(=O)CC[C@H](N)C(=O)O | 1.11 ± 0.046 | 1.11 ± 0.043
